Experimental findings from the antibiotic and cytotoxicity screens of Wong et al. (2023) are described below.

Some of the results follow.

The first experiment concerns HSkMC (human skeletal muscle cells). As to the kind of experiment: cytotoxicity call (relative viability < 0.9). The conditions noted are these: 10 µM.
On to `CC(C(=O)O)c1cccc(Oc2ccccc2)c1` (centres undefined), for which the cytotoxicity call is “inactive”. `C[C@@H]1CCCCO[C@@H](CN(C)C(=O)c2ccccc2)[C@H](C)CN([C@H](C)CO)C(=O)c2cc(NC(=O)c3ccccc3)ccc2O1`: the cytotoxicity call was “inactive”.

Regarding `C[C@@H]1CCCCO[C@H](CN(C)Cc2ccc(C(=O)O)cc2)[C@H](C)CN([C@@H](C)CO)C(=O)c2cc(NC(=O)c3ccccc3)ccc2O1`, the cytotoxicity call is “inactive”.

As to `CCCCCCCCCCCCCCCCCCOCC(O)CO` (centres undefined), the cytotoxicity call is “inactive”. Same read-out and setting: next, `COc1ccc(NC(=O)N(C)C[C@@H]2OCCCC[C@@H](C)Oc3ccc(NS(=O)(=O)c4ccc(OC)cc4)cc3C(=O)N([C@H](C)CO)C[C@@H]2C)cc1`: “inactive”.

As for `C[C@@H]1CN([C@@H](C)CO)S(=O)(=O)c2ccc(-c3cncnc3)cc2O[C@H]1CN(C)C(=O)Cc1ccncc1`, the cytotoxicity call was “inactive”. Turning to `C[C@@H]1CCCCO[C@H](CN(C)Cc2ccccc2)[C@@H](C)CN([C@@H](C)CO)C(=O)c2cc(NC(=O)Cc3ccccc3)ccc2O1`, the cytotoxicity call was “inactive”. The same measure, in the same setting: next, `C[C@@H]1CCCCO[C@H](CN(C)C(=O)Nc2ccc(C(F)(F)F)cc2)[C@H](C)CN([C@H](C)CO)C(=O)c2cc(NC(=O)Nc3ccc(F)cc3)ccc2O1`: “inactive”; `C[C@H]1CCCCO[C@@H](CN(C)Cc2ccncc2)[C@@H](C)CN([C@@H](C)CO)C(=O)c2cc(NS(=O)(=O)c3ccc(Cl)cc3)ccc2O1`: “inactive”. `O=C(O)/C=C/C(=O)O`: the cytotoxicity call is “inactive”. For the molecule `CCCC#Cc1cnc2c(c1)C(=O)N([C@H](C)CO)C[C@H](C)[C@H](CN(C)S(=O)(=O)c1cn(C)cn1)O2`, the cytotoxicity call was “inactive”. In the case of `CC(C)NC(=O)Nc1cccc2c1O[C@@H](CN(C)C(=O)Nc1ccc3c(c1)OCO3)[C@H](C)CN([C@H](C)CO)C2=O`, the cytotoxicity call is “inactive”.

For the next experiment, the system named is HepG2. As to the kind of experiment: cytotoxicity call (relative viability < 0.9). The conditions noted are these: 10 µM.
Consider `Cc1ccc(N2C[C@@H](N)CC2=O)cc1C`, for which the cytotoxicity call was “inactive”. Same read-out and setting: next, `C[C@H]1CN([C@@H](C)CO)C(=O)Cc2cc(NS(=O)(=O)c3cn(C)cn3)ccc2O[C@@H]1CN(C)S(C)(=O)=O`: “inactive”.

With `C[C@H](CO)N1C[C@H](C)[C@H](CN(C)CC2CCCCC2)OCCCC[C@H](C)Oc2ccc(NS(=O)(=O)c3ccc(Cl)cc3)cc2C1=O`, the cytotoxicity call was “active”. Still for that read-out and setting: next, `O=C1c2ccccc2[C@@]2(Cc3ccccc3N(CCN3CCOCC3)C2=O)[C@H](c2ccc(CO)cc2)N1Cc1ccccc1Cl`: “inactive”. On to `Cc1ccc(S(=O)(=O)N(C)C[C@@H]2OCCCC[C@H](C)Oc3ccc(NS(=O)(=O)c4ccc(Cl)cc4)cc3C(=O)N([C@@H](C)CO)C[C@@H]2C)cc1`, for which the cytotoxicity call was “active”.

Take `C[C@H](CO)N1C[C@H](C)[C@H](CN(C)Cc2ccc(C(=O)Nc3ccccc3N)cc2)OCCCC[C@H](C)Oc2ccc(N(C)C)cc2C1=O`: the cytotoxicity call was “inactive”. For `CO[C@H](CN(C)C(=O)c1ccc2c(c1)OCO2)[C@H](C)CN([C@@H](C)CO)S(=O)(=O)c1ccc(Cl)cc1`, the cytotoxicity call is “inactive”. The same measure, in the same setting: next, `Cc1noc(C)c1NC(=O)N(C)C[C@@H]1OCCCC[C@H](C)Oc2ccc(NC(=O)C3CCCCC3)cc2C(=O)N([C@H](C)CO)C[C@H]1C`: “inactive”; `COc1ccc(NC(=O)Nc2ccc3c(c2)C(=O)N([C@@H](C)CO)C[C@@H](C)[C@@H](CN(C)CC2CCCCC2)OCCCC[C@@H](C)O3)cc1`: “active”. As for `Cn1cnc(S(=O)(=O)N2C[C@@H](O)COC[C@@H]3O[C@H](CC(=O)NCc4cccc(F)c4)CC[C@H]32)c1`, the cytotoxicity call is “inactive”. On the same count and under the same terms, the value for `COc1ccc(CN(C)C[C@@H]2OCCCC[C@@H](C)Oc3ccc(NC(=O)C4CCCCC4)cc3C(=O)N([C@@H](C)CO)C[C@@H]2C)cc1` was “inactive”.

As for `C[C@H](CO)N1C[C@H](C)[C@H](CN(C)S(=O)(=O)c2cn(C)cn2)OCc2ccccc2-c2ccccc2C1=O`, the cytotoxicity call is “inactive”. As for `COc1ccc2c3c(n(c2c1)C)[C@H](CO)N(C[C@]13CN(C1)C(=O)Cc1ccccc1)C(=O)c1ccccn1`, the cytotoxicity call is “inactive”. With `C[C@@H]1CN([C@@H](C)CO)C(=O)c2ccccc2-c2ccccc2CO[C@@H]1CN(C)C(=O)Nc1ccc(F)cc1`, the cytotoxicity call is “inactive”.

Regarding `Cc1noc(C)c1S(=O)(=O)N(C)C[C@@H]1OCCCC[C@@H](C)Oc2ccc(NC(=O)Nc3ccccc3)cc2C(=O)N([C@@H](C)CO)C[C@@H]1C`, the cytotoxicity call was “inactive”. The same measure, in the same setting: the value for `CC(C)NC(=O)Nc1ccc2c(c1)C(=O)N([C@H](C)CO)C[C@@H](C)[C@@H](CN(C)C(=O)C1CCCCC1)OCCCC[C@@H](C)O2` was “inactive”; that for `COc1ccc(S(=O)(=O)Nc2ccc3c(c2)C(=O)N([C@@H](C)CO)C[C@H](C)[C@@H](CN(C)C(=O)Nc2ccccc2)OCCCC[C@@H](C)O3)cc1` was “inactive”.
